We go through 16 sequences from the supplement of paper PMC10338343.

± gives the standard deviation. Only a part is listed here, and it is no random draw.

The experiment concerns MIWI (PIWIL1) piRISC loaded with piRNA #1 (30 nt). In words: pre-steady-state target cleavage rate (min^-1); MIWI and MILI are mouse PIWI proteins and EfPiwi is from a freshwater sponge; tags in brackets are library labels; higher = faster piRNA-guided slicing of the target. The note with it: guide: piRNA #1 5'p-UGAGGUAGUAGGUUGUAUAGUAUCCAGAGG; auxiliary factor: 500 nM mouse GTSF1. In short, it runs like this: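 Sequencing of uncleaved targets, normalised to depth and to weakly complementary targets, was the readout of this Cleave-'n-Seq assay. A transcribed, DNA-blocked target RNA library (0.1 nM) was mixed with 1 nM active affinity-purified piRISC carrying one synthetic guide, with or without 500 nM GTSF1 partner protein, in HEPES–potassium acetate buffer at 33 °C for 0–8 or 0–960 min. Three trials were pooled, k3 was capped at 0.0001 min^-1, and a burst-and-steady-state fit gave the pre-steady-state cleavage rate.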
CCUCUGGAUACUAUUCAUCCUACUACCUCA: the “pre-steady-state target cleavage rate” value came to 1.61 ± 0.12. As for GGAGACCUAUGUAUACAUCCUACUACGUCA, the “pre-steady-state target cleavage rate” value turned out to be 0.00953 ± 0.002. Next, GGUCUGGAUACUAAACAACCAACUACCUCA: 0.117 ± 0.013; GGAGACCUAACAAUACAACCUUCUACCUCA: 0.00738 ± 0.0048.

Turning to GGUCUGGAUACUAUACUUGCUACUACCUCA, the “pre-steady-state target cleavage rate” value was determined as 0.0549 ± 0.013.

As for GGUCUGGAUACUAUAACAACCUACUACCUCA, the “pre-steady-state target cleavage rate” value worked out at 1.69 ± 0.12.

With GGACUGCAUUCUAUACAACCUACUACCUCA, the “pre-steady-state target cleavage rate” value was found to be 1.2 ± 0.12.

Consider GGAGUGGAUACUAUACGACCUACUACCUCA, for which the “pre-steady-state target cleavage rate” value was found to be 1.44 ± 0.079.

GGACUGGAUACAAUACAACCUACUACCUGA: the “pre-steady-state target cleavage rate” value is 0.458 ± 0.084. For the sequence GGAGACCUUACUAUACAACCUUCUACCUGA, the “pre-steady-state target cleavage rate” value stood at 0.243 ± 0.033. “GGAGACCUAACUAUACAACCUACUACCUCG [g2:g21:cont:t1G]”: the “pre-steady-state target cleavage rate” value amounted to 0.953 ± 0.086.

GGAGAGGAUACUAAACAAGCUACUACCUCA: the “pre-steady-state target cleavage rate” value amounted to 0.494 ± 0.036. Turning to GCUCUGGAUACUAAACAACCUACUUCCUCA, the “pre-steady-state target cleavage rate” value worked out at 0.502 ± 0.033. On to CCUCUGGAUACUAUACAACCUACUCCCUCA, for which the “pre-steady-state target cleavage rate” value came out at 1.18 ± 0.068. Next, GGAGUGGAUACUAUACAACCUACUGCCUCA: 0.869 ± 0.085; GGAGUGAAUACUAUACAACCUACUACCUCA: 1.76 ± 0.12.
